Assay results: PubChem BioAssay AID1345083 (National Center for Advancing Translational Sciences (NCATS), 2018)
The whole screen tested about 94,000 compounds, of which about 6,200 (6.6%) were called active. The shares of active, inactive and inconclusive entries below differ from those in the screen. Calls come from the whole dose curve; as a rule, active = well fitted inhibition curve with a large enough effect; inconclusive = small, poorly fitted or top-dose-only effect; inactive = flat fitted curve, though single readings scatter. A potency beside an inconclusive call is a rough fit, not a confirmed value.

Assay: Cytotoxic Profiling in HEK 293 Cell Line of Diverse Libraries Using Quantitative High-Throughput Screening; note: nearly all actives have a fitted effect of over 60% in size
Details: HEK 293 viability, ATP luminescence (CellTiter-Glo), 48-72 h; activity change, negative = cytotoxicity: at 115 µM (top of the series) unless noted; series mostly up to 115 µM
From the text: Cell-based phenotypic screening is a commonly used approach to discover biological pathways, novel drug targets, chemical probes and high-quality hit-to-lead molecules. Many hits identified from high-throughput screening campaign are ruled out through a series of follow-up potency, selectivity/specificity, and cytotoxicity assays. Prioritization of molecules with little or no cytotoxicity for a more in-depth downstream evaluation influence the future direction of projects, so cytotoxicity profiling of the screening libraries at early stage is essential for increasing the likelihood of candidate success. In this study, we analyzed results from a cell-based cytotoxicity screening campaign, comprising nearly 10,000 compounds in NCATS annotated libraries, and over 100,000 compounds in a diversity library, evaluated in four normal cell lines (HEK 293, NIH 3T3, CRL-7250 and HaCat) and a cancer cell line (KB 3-1, a HeLa subline) with overall screening outcomes, hit rates, pan-activity and selectivity. For the annotated library, we also examined the primary targets and mechanistic pathways regularly associated with cell death. To our knowledge, this is the first study to use high-throughput screening to profile large libraries for cytotoxicity assessment in both normal and cancer cell lines. In summary, the results generated here constitutes a valuable resource for the scientific community and provides insight on identifying cytotoxic compounds with particular mechanisms of action, and prioritizing compounds with suitable cytotoxicity profile for further evaluation.
HEK 293 cells were seeded into white 1536-well plates using a Multidrop Combi peristaltic dispenser (ThermoFisher, Waltham, MA) at a density of 250 cells/well in 5 uL of medium respectively. A pintool (Kalypsys) was used to transfer 23 nL of compound solution to the 1536-well assay plates. After 48 or 72 hr incubation at 37 degree Celsius, 5% CO2 and 95% humidity, 2.5 uL of CellTiter-Glo (Promega) was dispensed into each well using a dispenser (Aspect Automation, St. Paul, MN) with solenoid valves (Lee Valves, Westbrook CT). Plates were left at room temperature for 10 min before imaging the ATP-coupled luminescence using a ViewLux microplate imager (PerkinElmer, Waltham, MA).
% is set by controls: 0 for no effect and ±100 for the full control effect; potency is the fitted concentration of half-maximal effect; tags give direction and shape of the fitted curve.

Compound | Potency | activity change, negative = cytotoxicity
O=C1CC2(CCN([S+](=O)([O-])c3cccs3)CC2)Oc2ccccc2N1c1ccccc1 | inconclusive: 50.1 µM [inhibitor, partial curve, poor fit] | 
CCOc1ccccc1CN1CCO[C@@H](COC)[C@@H]1c1ccccc1 | active: 39.8 µM | 
CCn1cc(CN2CC[C@H]3C(=O)NCCCCCCN(Cc4ccncc4)[C@@H]3C2)cn1 |  | inactive: -12.9%
Cc1noc(-c2cn(C3CCN(C(=O)c4ccc(Cl)s4)CC3)nn2)n1 |  | inactive: -1.41%
O=C1CC(Cc2ccccc2)CN1CC(=O)N1CCOC2(CCCC2)C1 (stereo not drawn) |  | inactive: -11.4%
COc1ccc(OC)c(CN2CCNc3cc(Nc4ccccc4)ncc3C2)c1 | inconclusive: 63.1 µM [inhibitor, partial curve, poor fit] | 
COc1ccc(C(=O)Nc2cccc(-c3nnc4n3CCCC4)c2)cc1 |  | inactive: -14.6%
O=C(NC[C@H]1COCc2nc3cc(F)ccc3n21)c1ccccc1 |  | inactive: -9.27% [at 172 µM]
CCOc1ccc(C(=O)N2CCC3(CC2)C(=O)N(CC)c2ccccc23)cc1OCC | inconclusive: 50.1 µM [inhibitor, partial curve, poor fit] | 
COCCCn1c(=O)c(C(=O)N2CCC(C#N)CC2)nc2cccnc21 |  | inactive: -3.13%
COc1ccc(-c2nc(-c3nnn4c3COC(c3ccc(C)cc3)C4)no2)cc1F (stereo not drawn) |  | inactive: 8.77%
CN(Cc1cc(-c2cccnc2)no1)C(=O)C1COc2ccccc2C1 (stereo not drawn) | inconclusive: 56.2 µM [inhibitor, partial curve, poor fit] | 
CC1(c2ccccc2)CCCN(Cc2nnc(-c3cccnc3)o2)C1 (stereo not drawn) | inconclusive: 56.2 µM [inhibitor, partial curve, poor fit] | 
CC(C)(C)NC(=O)N1CCC2(CC1)C(=O)N(CC(=O)NCCc1ccccc1)CN2c1ccccc1 | inconclusive: 63.1 µM [inhibitor, partial curve, poor fit] | 
O=C(c1ccccc1F)N1CCC2(CC1)CN(Cc1ccccc1)CC2CO (stereo not drawn) | active: 79.4 µM | 
Cc1cc(S(=O)(=O)N2CCCC(Cn3c(C4CC4)nc4cccnc43)C2)ccc1F (stereo not drawn) |  | inactive: -21.6%
COc1ccc(-c2noc([C@@H]3CCCN3C(=O)Cc3ccccc3Cl)n2)cc1OC | inconclusive: 79.4 µM [inhibitor, single point] | 
C(=C\c1ccccc1)/CN1CCN(c2ncncn2)CC1 | inconclusive: 50.1 µM [inhibitor, partial curve, poor fit] | 
CC[C@@H]1[C@@H](NC(=O)C2(c3ccc(S(C)(=O)=O)cc3)CCC2)[C@@H]2CCO[C@H]12 |  | inactive: -2.75%
COc1ccc(-c2n[nH]c3c2CC(=O)N(CCOc2ccccc2)C3)cn1 | inconclusive: 10 µM [inhibitor, full curve, poor fit] | 
O=C1CCN(S(=O)(=O)c2ccccc2)CCCN(Cc2cn[nH]c2-c2ccc(F)cc2)CCN1 |  | inactive: -18.9%
COc1ccccc1CC(=O)N1CCC(n2cc(-c3nc(-c4ccccc4)no3)nn2)CC1 |  | inactive: -1.61%
O=C(Cc1ccc(F)cc1)N1CCOc2ccc(CN3CCc4ccccc4C3)cc2C1 | inconclusive: 39.8 µM [inhibitor, partial curve, poor fit] | 

Compound | Potency | activity change, negative = cytotoxicity
COc1ccc(Cn2c(C3CCN(C(=O)C(C)c4ccccc4)CC3)n[nH]c2=O)cc1 (stereo not drawn) |  | inactive: 3.01%
COC(=O)N1CCCCC1C(=O)N1CCC2(CC1)c1nc[nH]c1CCN2C (stereo not drawn) | inconclusive: 39.8 µM [inhibitor, single point] | 
CCOC(=O)CN(C1CCCC1)[C@@H]1C[C@@H]2CO[C@H](C(C)C)C[C@@H]2C1 |  | inactive: -16.3%
O=C(NCc1cccc(C(F)(F)F)c1)c1nc2sccn2c1-c1ccc(F)cc1 | inconclusive: 100 µM [inhibitor, partial curve, poor fit] | 
O=C1NCCCCCCN(C(=O)c2ccoc2)[C@H]2C[C@H](c3nc(Cc4ccccc4)no3)C[C@@H]12 | inconclusive: 50.1 µM [inhibitor, partial curve, poor fit] | 
O=C(c1cccc(Cl)c1)N1CCC(c2nn(-c3ccc(F)cc3)c(=O)[nH]2)CC1 | inactive | 
COc1nc2nc(CCc3ccccc3)n(C)c2cc1-c1ccnc(C)c1 |  | inactive: -64.8% [at 172 µM]
Cc1nn(CCO)cc1CN1CCN(C(=O)c2ccoc2)CC(O)C1 (stereo not drawn) |  | inactive: -4.59%
CCC(=O)Nc1ccc(-c2c(-c3ccc(F)cc3)nn(-c3ccc(F)cc3)c2OC(C)=O)cc1 | inconclusive: 44.7 µM [inhibitor, partial curve, poor fit] | 
COc1ccccc1-c1ncc2c(n1)OCCN(c1cccc(C(F)(F)F)c1)C2=O | inconclusive: 89.1 µM [inhibitor, partial curve] | 
Cc1ccccc1-c1cnc2n[nH]c(-c3ccc4c(c3)OCO4)c2n1 | active: 44.7 µM | 
COc1cccc(CN2CCc3c(cc(C(=O)Nc4ccc(F)cc4C)n3C)C2)c1 | inconclusive: 44.7 µM [inhibitor, partial curve, poor fit] | 
CC(C)(C)OC(=O)N1CC(NCc2ccc(C(F)(F)F)cc2)C1 |  | inactive: -23.4%
COc1ccc(CC(=O)Nc2ccc3n(c2=O)C[C@H]2C[C@@H]3CN(C(=O)c3ccc(-c4ccccc4)cc3)C2)cc1 |  | inactive: -23.9%
CCOc1ccccc1NC(=O)N1CCC(Oc2ccccc2-c2nc(C)no2)C1 (stereo not drawn) |  | inactive: 2.24%
Cn1ncc2c(C(=O)NCc3ccccc3)cc(-c3cccnc3)nc21 | active: 39.8 µM | 
COc1cccc(S(=O)(=O)N2CCC3(CC2)CC(N(C)Cc2ccccc2)CCO3)c1 (stereo not drawn) | inconclusive: 50.1 µM [inhibitor, partial curve, poor fit] | 
CC(C)Oc1ccc(CN2C(=O)C3(CCOCC3)CC2c2nnnn2C(C)(C)C)cc1 (stereo not drawn) |  | inactive: 1.88%
Cc1noc2c(NCCN3CCOCC3)cc(-c3ccc(Cl)cc3)nc12 | inconclusive: 100 µM [inhibitor, partial curve] | 
CCN1C[C@H]2COc3cc(OC)ccc3[C@H]2N(C(=O)C2CCC2)CCC1=O |  | inactive: -6.32%
COc1ccc(CCCN2C(=O)O[C@@H]3CN(c4nc(C)cc(C)n4)C[C@@H]32)cc1 | inconclusive: 89.1 µM [inhibitor, single point] | 
Cc1ccc(F)cc1CN1CCOc2cc([S+](N)(=O)[O-])ccc2C1 | inconclusive: 89.1 µM [inhibitor, partial curve] | 
C=CCOc1c(OC)ccc2c1CN(CC1CC1)C(=O)CCN2CC(O)COCc1ccco1 (stereo not drawn) | inconclusive: 50.1 µM [inhibitor, partial curve, poor fit] | 

Compound | Potency | activity change, negative = cytotoxicity
O=C1Nc2ccccc2CN(Cc2ccc(Cl)cc2)C12CCNCC2 | active: 20 µM | 
COCc1ccc(CN2CCCC(C(=O)Nc3cccc(-n4cccn4)c3)C2)o1 (stereo not drawn) | inconclusive: 22.4 µM [inhibitor, full curve, poor fit] | 
CCCN1CCN(C(=O)CN2CC3CC(C2)[C@H]2CCCC(=O)N2C3)CC1 (stereo partly drawn) |  | inactive: 2.68%
CCCNC(=O)N1CC(c2noc(C3CCCN3CC3CC3)n2)C1 (stereo not drawn) |  | inactive: -16.9%
O=C1NCCCCCCN(C(=O)c2ccncc2)[C@H]2C[C@H](c3nc(-c4cnccn4)no3)C[C@@H]12 |  | inactive: -2.03%
CCc1ccccc1NC(=O)Cn1c(-c2cccc(Cl)c2)nc(C)c(CCO)c1=O | inconclusive: 44.7 µM [inhibitor, partial curve, poor fit] | 
CCOCC(=O)N1CCCn2cc(-c3ccccc3)nc21 | inconclusive: 22.4 µM [inhibitor, full curve] | 
O=C1NCc2ccccc2CC12CCN(Cc1cnc3ccccc3c1)C2 (stereo not drawn) | inconclusive: 79.4 µM [inhibitor, partial curve, poor fit] | 
CCOc1cc(C(=O)N2CCN(c3cc(-c4ccc(Cl)cc4)[nH]n3)CC2)cc(OCC)c1OCC | active: 35.5 µM | 
CC(=O)NC1(C)CCN(Cc2cccc(-c3ccc(N4CCOCC4)cc3)c2)C1 (stereo not drawn) | inconclusive: 112 µM [inhibitor, partial curve] | 
COCCNC(=O)c1c(-c2ccc(F)cc2)noc1[C@H](C)O | inconclusive: 126 µM [inhibitor, single point] | 
O=C(CCc1cc2n(n1)CCN(C(=O)c1ccc[nH]1)C2)N1CCOCC1 |  | inactive: 0.991%
Cc1ncsc1C(=O)N1CCNc2cnc(Nc3cccc(C(F)(F)F)c3)nc2C1 | inconclusive: 39.8 µM [inhibitor, full curve, poor fit] | 
CC1=C[C@@H](CNC(=O)c2ccccn2)[C@H](C(C)C)C[C@H]1CC(=O)N1CCCC1 | inconclusive: 100 µM [inhibitor, partial curve] | 
CC(C)c1noc(-c2cn(C3CCN(C(=O)c4cccc(Br)c4)C3)nn2)n1 (stereo not drawn) | inconclusive: 50.1 µM [inhibitor, partial curve, poor fit] | 
COCCNC(=O)[C@@H]1Cc2cn(Cc3nccn3C)c3cccc(c23)[C@H](CC(C)C)N1 | active: 39.8 µM | 
COc1ccc(-c2cc(-c3ccc(OC)nc3)cn3cncc23)cc1 | active: 89.1 µM | 
COc1cccc(N2C(=O)NC(=NC3CCCC3)C23CCCN(Cc2ccc(F)cc2)C3)c1 (stereo not drawn) | inconclusive: 56.2 µM [inhibitor, partial curve, poor fit] | 
Cc1cc(C(=O)N2CCC(Oc3ccccc3-c3nc(C4CC4)no3)C2)n[nH]1 (stereo not drawn) | inconclusive: 70.8 µM [inhibitor, single point] | 
COc1ccccc1-c1cc(C(=O)NCCc2ccc(F)cc2)nn2cccc12 | active: 35.5 µM | 
O=C(CCCc1ccccc1)N1CCCC(CN2CCCC2)CC1 (stereo not drawn) | inconclusive: 50.1 µM [inhibitor, partial curve, poor fit] | 
Cc1cc(CN2CCn3c(nn(-c4ccc(C(F)(F)F)cc4)c3=O)C2)no1 | active: 89.1 µM | 
